Data published in patent US20260000669A1, “TREATMENT REGIMEN FOR AUTOIMMUNE DISEASES AND INFLAMMATORY DISEASES” (Merck Patent GmbH, priority 2022, published 2026).

System: influenza virus strains

## C=CC(=O)N1CCC(CNc2ncnc(N)c2-c2ccc(Oc3ccccc3)cc2)CC1 [evobrutinib, 1-[4-({[6-amino-5-(4-phenoxyphenyl)pyrimidin-4-yl]amino}methyl)piperidin-1-yl]prop-2-en-1-one]
Evobrutinib [total] group (75 mg QD or 50 mg BID), SLE patients, influenza vaccine
  seroconversion rate: 53.1%
Evobrutinib [total] group, post-vaccination
  seroprotection rate post-vaccination: 81.3%
Evobrutinib [total] group, pre-vaccination
  seroprotection rate pre-vaccination: 56.3%
Evobrutinib [total] minus placebo, in favor of evobrutinib
  difference in seroconversion rate versus placebo: 5.3%
Phase II trial, SLE patients
  overall humoral immune response to the influenza vaccine compared with placebo: comparable
Placebo and evobrutinib groups
  geometric mean ratios of post- vs pre-vaccination HI titer compared with placebo: generally comparable and similar
